Experimental data: paper doi:10.1101/2020.02.12.945204 (bioRxiv, 2020)

Assays:
[1] = biological target: T1, H48 flagella (polymeric flagellin) from commensal E. coli K12:O175:H48 (E. coli K12:O175:H48, UniProt P04949 1-498); assay: ELISA
T1 sequence: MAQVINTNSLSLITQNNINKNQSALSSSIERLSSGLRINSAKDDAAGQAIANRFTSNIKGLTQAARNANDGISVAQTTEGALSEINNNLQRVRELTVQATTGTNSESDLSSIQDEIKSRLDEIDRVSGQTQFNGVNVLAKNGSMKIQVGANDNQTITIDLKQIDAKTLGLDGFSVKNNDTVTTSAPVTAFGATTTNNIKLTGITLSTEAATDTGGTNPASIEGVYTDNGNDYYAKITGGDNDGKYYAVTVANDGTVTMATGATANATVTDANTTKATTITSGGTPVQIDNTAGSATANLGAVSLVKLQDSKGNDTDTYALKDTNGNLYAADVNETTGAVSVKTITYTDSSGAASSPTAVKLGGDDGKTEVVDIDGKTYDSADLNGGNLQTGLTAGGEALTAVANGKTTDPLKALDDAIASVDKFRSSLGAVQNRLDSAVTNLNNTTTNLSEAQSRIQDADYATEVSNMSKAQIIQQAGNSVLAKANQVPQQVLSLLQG

[2] = biological target: T2, H6 flagella (polymeric flagellin) from E. coli O127:H6 (E. coli O127:H6, UniProt B7USU2 1-548); assay: ELISA
T2 sequence: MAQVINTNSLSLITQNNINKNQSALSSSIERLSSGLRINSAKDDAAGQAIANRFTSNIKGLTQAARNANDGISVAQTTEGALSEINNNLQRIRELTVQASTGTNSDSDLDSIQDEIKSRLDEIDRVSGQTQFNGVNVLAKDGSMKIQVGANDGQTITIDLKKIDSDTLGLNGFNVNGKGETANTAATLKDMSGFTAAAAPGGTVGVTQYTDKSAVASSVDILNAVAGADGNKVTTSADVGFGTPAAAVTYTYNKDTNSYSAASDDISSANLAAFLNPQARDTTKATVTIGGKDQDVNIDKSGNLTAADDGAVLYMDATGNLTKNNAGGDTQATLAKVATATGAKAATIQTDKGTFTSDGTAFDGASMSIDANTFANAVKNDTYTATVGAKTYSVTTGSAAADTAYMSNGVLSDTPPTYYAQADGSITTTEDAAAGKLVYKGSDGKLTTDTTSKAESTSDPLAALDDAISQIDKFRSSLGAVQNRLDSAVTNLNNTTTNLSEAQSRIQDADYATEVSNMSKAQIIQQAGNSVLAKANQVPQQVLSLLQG

B1: recombinant human cofilin-1 (natural protein)
chain: not shown
**Q.** Does B1 bind [1]?
**A.** binds

**Q.** Does B1 bind [2]?
**A.** binds
